Measurements published in publication PMC4336329 (PLoS ONE, 2015).
In all, about 310,000 compounds went through this assay and about 14,000 (4.5%) showed an effect of 50% or more. Effects have a minus sign here. Some of the results follow.

What follows are compounds tested against human ether-à-go-go-related gene (hERG) potassium channel (human, UniProt Q12809) (assay: primary screen, population patch clamp on CHO cells stably expressing hERG).
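Further: peak tail current of the secondary pulse compared with the same well before compound.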

Sequence of human ether-à-go-go-related gene (hERG) potassium channel (Q12809 whole entry, looked up): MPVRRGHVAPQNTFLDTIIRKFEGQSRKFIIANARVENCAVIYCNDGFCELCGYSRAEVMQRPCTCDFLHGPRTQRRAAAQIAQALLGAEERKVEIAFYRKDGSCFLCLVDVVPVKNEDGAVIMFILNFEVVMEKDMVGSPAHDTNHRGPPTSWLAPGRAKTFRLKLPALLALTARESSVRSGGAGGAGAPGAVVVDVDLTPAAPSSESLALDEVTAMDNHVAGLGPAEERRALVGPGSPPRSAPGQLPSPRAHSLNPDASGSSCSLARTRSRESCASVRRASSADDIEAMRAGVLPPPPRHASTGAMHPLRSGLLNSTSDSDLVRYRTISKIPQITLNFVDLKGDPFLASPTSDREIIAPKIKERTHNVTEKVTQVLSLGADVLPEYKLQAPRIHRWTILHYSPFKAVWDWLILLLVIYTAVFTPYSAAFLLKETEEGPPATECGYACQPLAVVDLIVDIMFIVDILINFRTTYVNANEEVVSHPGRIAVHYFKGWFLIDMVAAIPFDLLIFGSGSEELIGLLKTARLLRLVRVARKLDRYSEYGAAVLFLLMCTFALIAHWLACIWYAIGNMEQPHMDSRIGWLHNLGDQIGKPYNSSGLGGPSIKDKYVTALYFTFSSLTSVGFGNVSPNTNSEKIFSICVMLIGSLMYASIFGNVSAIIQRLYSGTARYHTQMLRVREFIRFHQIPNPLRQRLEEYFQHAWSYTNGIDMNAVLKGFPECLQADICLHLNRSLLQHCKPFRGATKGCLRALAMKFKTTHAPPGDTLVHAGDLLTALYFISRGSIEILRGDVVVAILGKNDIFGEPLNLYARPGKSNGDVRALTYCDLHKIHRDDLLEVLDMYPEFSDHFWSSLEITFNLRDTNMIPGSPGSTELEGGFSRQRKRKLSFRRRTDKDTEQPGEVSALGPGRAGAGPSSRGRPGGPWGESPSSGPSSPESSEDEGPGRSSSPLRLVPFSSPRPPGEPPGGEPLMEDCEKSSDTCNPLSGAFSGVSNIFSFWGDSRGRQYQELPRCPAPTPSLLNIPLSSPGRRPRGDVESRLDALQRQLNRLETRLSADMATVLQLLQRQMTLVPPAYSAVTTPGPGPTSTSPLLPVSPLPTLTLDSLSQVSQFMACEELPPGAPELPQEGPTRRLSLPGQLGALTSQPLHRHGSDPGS

Compound	hERG current change (%, negative = inhibition) at 10uM
COC(=O)c1sc(NC(=O)CCCn2nc([N+](=O)[O-])cc2C)c(C(=O)OC)c1C	-16.3%
CC(C)OC(=O)Cn1cnc2ccc(Br)cc2c1=O	-8.98%
COCCNC(=O)/C(C#N)=C/c1cccs1	9.54%
COC(=O)c1ccc(N2CCN(C(=O)c3ccccc3)CC2)c(NC(C)=O)c1	-39.8%
OC(COc1ccccc1)CN1CCCC1 (stereo not drawn)	14.5%
CC(C)Oc1ccc(C(CC(=O)O)NC(=O)C2CCCCC2)cc1 (stereo not drawn)	12.5%
COc1ccccc1/C=C/[C@@H]1C[C@H]2CN(Cc3cccc(Cl)c3)C(=O)[C@]23CCCN13	-75.4%
Cc1cccc(CCNC(=O)c2cccc(NC3=NC4CS(=O)(=O)CC4S3)c2)c1 (stereo not drawn)	5.32%
CC1CCCN(C2=C(NS(=O)(=O)c3ccc(Br)cc3)C(=O)c3ccccc3C2=O)C1 (stereo not drawn)	-23.6%
Cc1ccc(C(=O)Nc2c(N)nc(SCC(=O)Nc3cc(C)on3)[nH]c2=O)cc1	11.8%
Cc1ccc(OCC(=O)N(Cc2cccs2)C2CCS(=O)(=O)C2)cc1C (stereo not drawn)	4.21%
Cc1sc2nc(SCC(=O)NCc3ccco3)n(-c3ccccc3)c(=O)c2c1C	8.63%
O=C(NCCNC(=O)c1cccnc1)c1ccc(Br)cc1	14.6%
CCOC(=O)c1c(C)[nH]c(C)c1S(=O)(=O)NCCc1cccs1	-12.7%
O=C(NC1CCCCC1)N1CCCC(CNS(=O)(=O)Cc2ccccc2)C1 (stereo not drawn)	-13.7%
Cc1cc(C)c(NC(=O)CSc2ccc(-c3cccnc3)nn2)c(C)c1	9.79%
COCCNC(=O)c1cccc(OC2CCN(Cc3ccccc3OCCO)CC2)c1	-29.3%
O=C(c1cnn2c(C(F)F)cc(-c3ccccc3)nc12)N1CCCc2ccccc21	-3.45%
COC(=O)N/N=C/c1ccc(-c2ccccc2Cl)o1	-8.41%
COc1cccc(N2CC(O)=C(c3ccccc3)C2=N)c1	7.71%
CN(C)C(=O)NC(O)C(Cl)(Cl)Cl (stereo not drawn)	9.95%
CCCCNC(=O)c1ccc(-n2c(=S)[nH]c3ccccc3c2=O)cc1	20.6%

Compound	hERG current change (%, negative = inhibition) at 10uM
CCN(CC(=O)NCc1ccc(F)cc1)CC(=O)Nc1ccc(S(=O)(=O)N2CCCC2)cc1	-22.8%
Nc1c(C(=O)CCC(=O)O)oc2ccc(Cl)cc12	-9.4%
COc1ccc(NS(=O)(=O)Cc2ccccc2Cl)cn1	2.61%
O=C(O)c1cccc(CSc2ncccn2)c1	-2.38%
COc1ccc(CCN(C)CCCC(C#N)(c2cc(OC)c(OC)c(OC)c2)C(C)C)cc1OC.Cl (stereo not drawn)	-64.1%
CCOC(=O)C1CC(c2ccc(Cl)cc2)=NNC1=O (stereo not drawn)	-23.1%
COc1ccc(CN(C)C(=O)c2ccccc2OCc2c(C)noc2C)cc1OC	-8.98%
O=C(c1ccccc1[N+](=O)[O-])N1CCCC(C(=O)N2CCCCCC2)C1 (stereo not drawn)	10.6%
CCN(CC)S(=O)(=O)c1ccc(N2CCCC2)c(NS(=O)(=O)c2ccc(OC)cc2)c1	-13.7%
CC(NS(=O)(=O)c1cccc(Cl)c1)C(=O)Nc1ccc(-c2nc3ccccc3s2)cc1 (stereo not drawn)	3.98%
CCn1nc(NC(=O)c2ccco2)c2cc3ccc(C)cc3nc21	7.22%
O=C(NC(=O)N1CCCCCC1)c1ccccc1	17.6%
COc1cc(NC(=O)C2CCCN2S(=O)(=O)c2cccc3cccnc23)cc(OC)c1OC (stereo not drawn)	16.6%
Cc1ccc(SCC2CNc3nc4ccccc4c(=O)n32)c(C)c1 (stereo not drawn)	-37.7%
CC(C)Cn1c(N)c(C(=O)CSc2cc(Cl)ccc2Cl)c(=O)n(C)c1=O	-6.78%
CCCCn1c(N)c(N(CCOC)C(=O)c2cc(-c3ccc(OC)c(OC)c3)nc3ccccc23)c(=O)[nH]c1=O	11%
CCN(CC)C(=O)c1[nH]cnc1C(=O)Nc1cccc(C)c1	8.42%
NS(=O)(=O)c1ccc(NC(=O)c2c(F)cccc2Cl)cc1	14%
COC(=O)[C@H](Cc1ccccc1)NC(=O)NCc1cccs1	5.07%
COc1ccc(N2C(=O)C3CCCN3C2c2ccc(Cl)cc2)cc1 (stereo not drawn)	2.16%
CCCCc1ccc(C2C(C#N)=C(N)SC(N)=C2C#N)s1	21.4%
Cc1ccc2oc(Nc3nc(C)cc(C)n3)nc2c1	-3.47%

Compound	hERG current change (%, negative = inhibition) at 10uM
CC(C)C[C@H](NC(=O)C1CCN(C(=O)[C@H](Cc2ccccc2)NC(=O)OC(C)(C)C)CC1)C(=O)O	20.5%
COC(=O)C1CCN(C(=O)N2CCOCC2)CC1	5.68%
COc1ccc(C(=O)Cn2nnc(-c3ccc(N4CCOCC4)cc3)n2)cc1OC	-8.3%
COC(=O)c1ccc(C23CC4(C2)[C@H](CN(Cc2cccnc2)[C@@H]4c2ccccc2)C3c2ccc(C(F)(F)F)cc2)cc1 (stereo partly drawn)	16.8%
COc1ccc(N2CC(C(=O)N[C@@H](CC(C)C)C(=O)NC3CCCC3)CC2=O)cc1 (stereo partly drawn)	18.4%
Cc1cccc(-c2noc(-c3cc4ccccc4oc3=O)n2)c1	-1.31%
CCc1ccc2c(c1)cc(CN(C(=S)Nc1ccccc1Cl)C1CC1)c1nnnn12	-41.4%
CC1CCN(c2nc3ccccc3n2CC(=O)c2ccccc2)CC1	56%
CCOC(=O)N1CCN(C(=O)c2ccc3nc4cc(Cl)ccc4c(=O)n3c2)CC1	-41.6%
CC(NC(=O)C12CC3CC(CC(O)(C3)C1)C2)c1ccc(Cl)cc1Cl (stereo not drawn)	10.8%
CCOC(=O)c1ccc(N=Cc2c(O)c3ccccc3oc2=O)cc1	16.5%
CC(C)(C)SC(=O)CC1NS(=O)(=O)OC2CCCCC12 (stereo not drawn)	3.56%
O=C(Cc1ccc(S(=O)(=O)N2CCCC2)s1)Nc1nc2c(s1)CCCC2	5.06%
COC(=O)c1ccc(CSc2nnc(C)n2N)o1	25.3%
COC(=O)c1nc(NC(=O)c2ccc(Br)cc2)n[nH]1	-7.62%
CC(C)(C)C1(O)CC(C(F)(F)F)=NN1C(=O)Cc1ccc([N+](=O)[O-])cc1 (stereo not drawn)	-8.24%
Nc1nc(SCC(=O)N2CCCC2)[nH]c(=O)c1NC(=O)c1ccco1	-9.62%
COc1ccc2oc(C(=O)Nc3ccccn3)c(C)c2c1	11.6%
O=[N+]([O-])c1cccc(NC(=S)N2CCN(c3ccccn3)CC2)c1	0.236%
Cc1ccc(C)c(NS(=O)(=O)c2ccc(NC(=O)c3ccco3)cc2)c1	4.11%
COc1cc(NC(=O)Cn2c(=O)n(-c3cccc(C)c3)c(=O)c3c(C)c(C)sc32)cc(OC)c1	-8.37%
CC(N)Cc1cn(Cc2ccccc2)c2ccccc12.Cl (stereo not drawn)	-7.76%

Compound	hERG current change (%, negative = inhibition) at 10uM
CCCN(CCC)CCNC(=O)C1CCCN(S(=O)(=O)c2ccc3c(c2)oc(=O)n3C)C1 (stereo not drawn)	10.7%
CCN(CC)S(=O)(=O)c1cccc(C(=O)NCC(c2ccccc2)N(C)C)c1 (stereo not drawn)	-9.36%
CC(C(=O)NC1CCCC1)N(C(=O)Cn1nnc(-c2ccc(F)cc2)n1)c1ccccc1F (stereo not drawn)	0.403%
COc1ccccc1Cn1c(=S)[nH]c2cc(C(=O)NCCCN3CCOCC3)ccc2c1=O	-7.16%
O=C(Cc1ccccc1)N/N=C/c1ccc[nH]1	21.7%
CC(=O)c1c(C)[nH]c(C(=O)N2CCN(c3ccccn3)CC2)c1C	10.4%
CC(C)(C)C(=O)CC(=O)Nc1ccc(Cl)c(N)c1	14.1%
O=C(Nc1cc(S(=O)(=O)N2CCCC2)ccc1OCC(F)(F)F)c1ccccc1F	18.5%
CC(C)n1c(SCC(=O)c2ccc3c(c2)OCCO3)nc2c1c(=O)n(C)c(=O)n2C	2.04%
COc1cccc(N2CCN(CC(=O)Nc3ccc(-n4cnnn4)cc3)CC2)c1	7.28%
CC1CN(C(=O)CCC(=O)N2CCCCC2)c2ccccc2O1 (stereo not drawn)	7.55%
CC(=O)c1cccc(-n2c(CCC(=O)O)ccc2-c2ccccc2)c1	18.1%
CC(C)CNC(=O)Cn1c(=O)c2c(ncn2CC(C)C)n(Cc2ccccc2)c1=O	13.2%
CCOc1ccc2nc3c(cc2c1)CN(CCOC)C(=NCCOC)S3	-5.18%
CCOc1ccccc1/C=C/c1onc(C)c1S(=O)(=O)N1CCC(C(=O)NC)CC1	-4.96%
Clc1ccc(-c2nnc(CCc3ccccc3)o2)c(Cl)c1	-3.82%
CN(C)CCNc1ncnc2sc(-c3ccccc3)cc12	-21.1%
CN(C)c1c(F)cc(C(=O)NC(=O)NCc2cccnc2)cc1F	7.15%
Cc1cccc(NC(=O)c2cnn(-c3ccccc3)c2C)c1C	15.4%
COc1ccc(C(=O)NC2CCN(CC(=O)N3CCCCC3)CC2)cc1	13.6%
COC(=O)C1=C(C)Nc2nnnn2C1c1ccc(Cl)cc1Cl (stereo not drawn)	-1.24%
